The other results are listed elsewhere or left out.

In this experiment the target is T1, OsWOX13 (Oryza sativa, UniProt Q5QMM3 1-267).
T1 sequence: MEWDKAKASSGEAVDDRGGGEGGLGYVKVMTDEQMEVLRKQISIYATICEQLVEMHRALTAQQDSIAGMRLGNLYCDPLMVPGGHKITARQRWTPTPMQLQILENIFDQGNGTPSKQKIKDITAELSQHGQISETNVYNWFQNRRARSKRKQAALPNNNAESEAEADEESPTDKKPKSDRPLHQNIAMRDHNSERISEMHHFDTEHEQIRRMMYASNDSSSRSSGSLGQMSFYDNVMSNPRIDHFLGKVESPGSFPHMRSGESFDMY
The experiment can be described thus: protein-binding microarray (RPBM); PBS, 2% BSA, 51.3 ng/ul salmon testes DNA, 50 uM zinc acetate, 200 nM TF, 25 C, 1 h; high values mean tight binding. Conditions: protein: recombinant; tags: N-terminal polyhistidine and DsRed monomer fusion (pET32a); label: CyDye5-dUTP incorporated in the synthesized complementary strand; 3' TTTTT single-stranded linker to array surface; dsDNA, one strand shown. Summed up:
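For the binding signal, per-feature fluorescence intensity was read in arbitrary units on an Axon 4000B scanner. Before scanning, a 2% BSA-blocked custom Agilent array made double-stranded with Cy5-dUTP was washed after 1 h at 25 °C with 200 nM protein and 50 µM zinc acetate. The proteins were Ni–NTA-purified transcription factors with N-terminal polyhistidine and DsRed fusions, expressed in E. coli BL21-CodonPlus.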
For “TAGTTTATACTCAATTAATCATGTACTAATAGCTCACCTCCGGAGTCACCTAGTGCAG”, the binding signal was 6820 fluorescence intensity (a.u.).

With “TCATCAATCCATATAAACTGGACTAGGGCTATTATCTGCTCGGAGTCACCTAGTGCAG”, the binding signal was 10700 fluorescence intensity (a.u.).

For “AGTAACTGTAACTGAAGAAGCCGGCGCCACCATTCCCGCCCGGAGTCACCTAGTGCAG”, the binding signal is 6680 fluorescence intensity (a.u.).

Turning to “GTTTCAAATTAATTATCATGTAACATTAGACTATATGAAACGGAGTCACCTAGTGCAG”, the binding signal is 16100 fluorescence intensity (a.u.).

Turning to “CAATGGGATGACTGCGGTGAATTGCAAGACCAATGGGATGCGGAGTCACCTAGTGCAG”, the binding signal was 3390 fluorescence intensity (a.u.).

As for “ACAATTGAAATTTGCCAACAAAATTTTCCAAATTCGAAGACGGAGTCACCTAGTGCAG”, the binding signal was 7220 fluorescence intensity (a.u.).

With “CTGTAATAAATTATTAACCTAGGCTTTGTAGCTGTCTAAACGGAGTCACCTAGTGCAG”, the binding signal is 5140 fluorescence intensity (a.u.).

Turning to “GCTGATTACATCCGTCTCACTTTGACCATGGATTACTTTTCGGAGTCACCTAGTGCAG”, the binding signal was 34900 fluorescence intensity (a.u.).

Turning to “TGCTAGAATGATTTACGTTATGAAACTGAGGGAGTACATCCGGAGTCACCTAGTGCAG”, the binding signal is 5380 fluorescence intensity (a.u.).

As for “TACATCAGCTTCACTAGATTAATTGGCACATCATCTGACTCGGAGTCACCTAGTGCAG”, the binding signal was 9810 fluorescence intensity (a.u.).

For “TGAAAATTTCTTCAGTGACTGAGTATTGCTCTTCACCCATCGGAGTCACCTAGTGCAG”, the binding signal is 6860 fluorescence intensity (a.u.).

For the sequence “GGGGAGGCGGGGTGGCGGGAGGGAAGGCGGCGGCGGCGCCCGGAGTCACCTAGTGCAG”, the binding signal was 4430 fluorescence intensity (a.u.).

On to “GATAATTTGTTTGTTCTCCGAAATTACCAAACTGTCCTTTCGGAGTCACCTAGTGCAG”, for which the binding signal is 25400 fluorescence intensity (a.u.).

For the sequence “CAAGATTATTAGCACGGATTATATCTATTTCATTAACAAACGGAGTCACCTAGTGCAG”, the binding signal is 3310 fluorescence intensity (a.u.).

On to “ATAATTAATTTTGAAGGGAAATGGAAGGCATCCTTCTTGGCGGAGTCACCTAGTGCAG”, for which the binding signal was 47700 fluorescence intensity (a.u.).

In the case of “ACTAACAATTATTATATCGATTATTTTAAATATCATGTTACGGAGTCACCTAGTGCAG”, the binding signal is 7610 fluorescence intensity (a.u.).

With “GTCAAATTAGCCACGTATGCGCCACGACAGCTAAAATCACCGGAGTCACCTAGTGCAG”, the binding signal is 4230 fluorescence intensity (a.u.).

On to “ACGGCTTAATTAGGCTCAAAAGATTCGTCTCACGGTTTTCCGGAGTCACCTAGTGCAG”, for which the binding signal was 4220 fluorescence intensity (a.u.).

As for “ACACCTAACCATTCAATCCAAAATCAAACAACCGAAGACTCGGAGTCACCTAGTGCAG”, the binding signal is 3190 fluorescence intensity (a.u.).

“CTTAATTGTAAATCGTTACAGTTTGTTGTCATTTCATTTCCGGAGTCACCTAGTGCAG”: the binding signal is 25600 fluorescence intensity (a.u.).

As to “ACTTTGATCCATCTATCAAATCAGCATGCGTGCCTAGCAACGGAGTCACCTAGTGCAG”, the binding signal is 3170 fluorescence intensity (a.u.).

With “TCATCGGGATTGAATTCTCCTTAATTAAATGGAAGAGTGACGGAGTCACCTAGTGCAG”, the binding signal was 14800 fluorescence intensity (a.u.).

In the case of “TTCAGTTGAAATCATTTAGTAATTATAAATGTTGTTTGAACGGAGTCACCTAGTGCAG”, the binding signal is 8860 fluorescence intensity (a.u.).

Regarding “TCCCTGTTGTATTTCTTTAATTTGTTTGTGATATATACAACGGAGTCACCTAGTGCAG”, the binding signal is 4030 fluorescence intensity (a.u.).

Turning to “TACCACCACTGATTGAGTTGGGTCAGGTCGAACTTCTCTCCGGAGTCACCTAGTGCAG”, the binding signal is 12800 fluorescence intensity (a.u.).

On to “CCAAATTTGTTGCGAGATTTGAGGTTTCCTTGCGTGCTTGCGGAGTCACCTAGTGCAG”, for which the binding signal was 15000 fluorescence intensity (a.u.).

With “AGGCAGCAATAATTAATGGCAAAACTTTACCATGTATCTACGGAGTCACCTAGTGCAG”, the binding signal was 4970 fluorescence intensity (a.u.).

“TGCCATTCACTAATAATTGCCAACATAACAAACTGACAGCCGGAGTCACCTAGTGCAG”: the binding signal is 12700 fluorescence intensity (a.u.).

In the case of “AGCAATGCAACGATTATTAATTTAATTTGCACATGTATTGCGGAGTCACCTAGTGCAG”, the binding signal was 5900 fluorescence intensity (a.u.).

As to “AGTCTCTAAATTACATATGTAAATTTAGTGTATTTATAATCGGAGTCACCTAGTGCAG”, the binding signal is 12200 fluorescence intensity (a.u.).

For the sequence “AGTTACTAATTGATTCAGATGCATGGCAGTATAATTGTCTCGGAGTCACCTAGTGCAG”, the binding signal was 44900 fluorescence intensity (a.u.).

Regarding “ATGAGCTTATGCCTGATTGAGAGGTTTCATCGGATTGAAACGGAGTCACCTAGTGCAG”, the binding signal is 5950 fluorescence intensity (a.u.).

Regarding “CATCAATCATCATTACATATTCTGTCAGTAATAATCCGAGCGGAGTCACCTAGTGCAG”, the binding signal was 38800 fluorescence intensity (a.u.).

“TTAAACATTCTATAATTTAGTCTGTTATTAAGCTACGTTTCGGAGTCACCTAGTGCAG”: the binding signal is 10500 fluorescence intensity (a.u.).

For the sequence “GGTGATTTGATTCAAATTCAATCCGATCCTTTGTTGGTTTCGGAGTCACCTAGTGCAG”, the binding signal is 53400 fluorescence intensity (a.u.).

In the case of “GGTTGATTGGATTGGTGGAGCAAAACAGGTTGTGTATGGACGGAGTCACCTAGTGCAG”, the binding signal is 51700 fluorescence intensity (a.u.).

Regarding “TTGTTGATTGCACTTGCATGAACTGCACAAAGTTATTACACGGAGTCACCTAGTGCAG”, the binding signal is 24200 fluorescence intensity (a.u.).

Regarding “TATCAATTAATACATCAGTTTTGATAACCATTCAGATTTTCGGAGTCACCTAGTGCAG”, the binding signal is 11900 fluorescence intensity (a.u.).

With “AAAGTTATTTATATTTAATTAAGTTTGTAGGAAAATATAGCGGAGTCACCTAGTGCAG”, the binding signal was 3710 fluorescence intensity (a.u.).

In the case of “ATATAAATTTGGAACAAATTCAACATCATGTTATCCTAGGCGGAGTCACCTAGTGCAG”, the binding signal was 4060 fluorescence intensity (a.u.).

In the case of “TTCAAATTCAAGATTGACACAGGTGCTTGCATTTACGGCTCGGAGTCACCTAGTGCAG”, the binding signal is 16400 fluorescence intensity (a.u.).

With “AAGTAATTATTAATTCTTTTCCTATCATCTGATTCATTGTCGGAGTCACCTAGTGCAG”, the binding signal was 24600 fluorescence intensity (a.u.).
